According to patent US20240190842A1, “SUBSTITUTED QUINOLINONE-8-CARBONITRILE DERIVATIVES HAVING ANDROGEN DEGRADATION ACTIVITY AND USES THEREOF” (Accutar Biotechnology Inc., priority 2022, published 2024):
For at least one compound, name, drawing or mass did not settle the structure.

How the values were obtained:
Format in all cases: cell-based
[1] = biological target: T1, AR wildtype (PC3 AR-WT cells) (Homo sapiens, UniProt P10275); test: PC3 AR-WT cellular degradation assay (in-cell immunofluorescence of AR); details: 24 hours incubation
T1 construct: full length AR wildtype was cloned into CD532A-2 lentivector; expressed in transfected cells; host or cells: PC3 cells (ATCC), lentiviral transduction, puromycin selected
T1 sequence (P10275 1-920): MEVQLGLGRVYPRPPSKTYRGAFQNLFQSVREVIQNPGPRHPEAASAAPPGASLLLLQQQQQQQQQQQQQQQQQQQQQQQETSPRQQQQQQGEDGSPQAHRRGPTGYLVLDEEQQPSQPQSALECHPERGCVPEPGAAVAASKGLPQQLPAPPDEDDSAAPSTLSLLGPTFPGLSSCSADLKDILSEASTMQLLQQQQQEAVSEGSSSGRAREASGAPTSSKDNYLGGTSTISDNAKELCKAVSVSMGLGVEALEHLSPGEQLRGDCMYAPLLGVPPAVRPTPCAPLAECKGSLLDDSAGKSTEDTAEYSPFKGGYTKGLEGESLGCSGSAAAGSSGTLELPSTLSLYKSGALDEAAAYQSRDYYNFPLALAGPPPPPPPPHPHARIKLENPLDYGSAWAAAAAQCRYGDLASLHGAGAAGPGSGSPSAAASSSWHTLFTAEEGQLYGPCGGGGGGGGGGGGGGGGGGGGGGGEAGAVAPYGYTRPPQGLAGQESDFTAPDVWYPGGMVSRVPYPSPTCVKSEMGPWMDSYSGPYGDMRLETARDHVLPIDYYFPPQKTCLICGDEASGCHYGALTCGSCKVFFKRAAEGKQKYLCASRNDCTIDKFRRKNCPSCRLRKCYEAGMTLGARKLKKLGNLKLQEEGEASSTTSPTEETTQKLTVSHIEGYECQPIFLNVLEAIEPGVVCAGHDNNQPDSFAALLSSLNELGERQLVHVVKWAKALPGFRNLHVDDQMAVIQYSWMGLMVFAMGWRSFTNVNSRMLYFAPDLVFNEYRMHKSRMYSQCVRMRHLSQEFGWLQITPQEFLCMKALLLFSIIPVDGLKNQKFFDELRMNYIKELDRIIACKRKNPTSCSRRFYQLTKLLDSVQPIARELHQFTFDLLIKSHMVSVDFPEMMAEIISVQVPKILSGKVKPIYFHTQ

LNCAP cells = test: Inhibition of R1881 stimulated cell growth in LNCAP cells (CellTiter-Glo); details: 10% CSS, 6 days
Procedure: (§1) LNCAP and VCAP cells were seeded in 96-well plates at 5000 (LNCAP) and 6000 (VCAP) cells/well in phenol red-free RPM11640 supplemented with 10% charcoal stripped serum (CSS), and then incubated at 37° C. overnight. The following day, the test compound was administered to the cells by using 1000× compound stock solution prepared in DMSO at various concentrations. 1000× compound stock solution was first diluted 1:100 in phenol red-free RPM11640 supplemented with 10% CSS and 1 nM R1881 to prepare the 10× treatment solutions containing serial dilutions of AC176 together in the presence of 1 nM, and then 10 uL compound medium was added to each well in the cell plates. After administration of the compound, the cells were then incubated at 37° C. for 6 days. Upon completion, the plates were equilibrated at room temperature for approximately 10 minutes. 100 ul of CellTiter-Glo® 3D Reagent (Promega) was added to each well. The plates were then incubated at room temperature for 30 minutes and luminescence was recorded by EnSpire plate reader (PerkinElmer). The results are shown in Table 5, which summarizes the growth inhibition (G150) in LNCAP and VCAP cells with exemplary compounds of the present disclosure.

VCAP cells = test: Inhibition of R1881 stimulated cell growth in VCAP cells (CellTiter-Glo); details: 10% CSS, 6 days
Procedure: as §1

SMILES: CC1(C)[C@H](NC(=O)c2ccc(N3CC[C@@H](CN4CCN(c5ccc6c(c5)CN([C@H]5CCC(=O)NC5=O)C6=O)CC4)C3)c(F)c2)C(C)(C)[C@H]1Oc1ccc(C#N)c2[nH]c(=O)ccc12 [Compound 15, N-((1r,3S)-3-((8-cyano-2-oxo-1,2-dihydroquinolin-5-yl)oxy)-2,2,4,4-tetramethylcyclobutyl)-4-((S)-3-((4-(2-((S)-2,6-dioxopiperidin-3-yl)-1-oxoisoindolin-5-yl)piperazin-1-yl)methyl)pyrrolidin-1-yl)-3-fluorobenzamide]
- DC50 [1]: ≤ 5 nM
- GI50 (LNCAP cells): > 500 nM
- GI50 (VCAP cells): ≤ 50 nM

SMILES: CC1(C)C(NC(=O)c2ccc(N3CCC(CN4CCN(c5ccc6c(c5)C(=O)N(C5CCC(=O)NC5=O)C6=O)CC4)CC3)c(F)c2)C(C)(C)C1Oc1ccc(C#N)c2[nH]c(=O)ccc12 (stereo not drawn) [Compound 19, N-((1,3-trans)-3-((8-cyano-2-oxo-1,2-dihydroquinolin-5-yl)oxy)-2,2,4,4-tetramethylcyclobutyl)-4-(4-((4-(2-(2,6-dioxopiperidin-3-yl)-1,3-dioxoisoindolin-5-yl)piperazin-1-yl)methyl)piperidin-1-yl)-3-fluorobenzamide]
- DC50 [1]: 5 to 50 nM
- GI50 (LNCAP cells): 50 to 500 nM
- GI50 (VCAP cells): 50 to 500 nM
